# Assay results reported in PubChem BioAssay AID1508623 (National Center for Advancing Translational Sciences (NCATS), 2021).
# About 450 (0.94%) of roughly 48,000 compounds were called active. Not shown: some 19% with an inconclusive outcome. Calls come from the whole dose curve; as a rule, active = well fitted inhibition curve with a large enough effect; inconclusive = small, poorly fitted or top-dose-only effect; inactive = no such curve, though single readings can be large or run the other way. The list shows a part of the results.
# Assay: Primary qHTS for Identification of Small Molecule Inhibitors of Huntingtin Promoter Activity; note: nearly all actives have a fitted effect of over 50% in size
# Conditions: HEK293 HTT promoter firefly luciferase reporter (activity 0% = vehicle and -100% = no light), 24 h; series mostly up to 57.5 µM; activity change, negative = inhibition: at the top concentration
# Procedure, shortened: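 HEK293 luciferase promoter-reporter cells (2,500/well) plated 24 h, then compounds added at up to 57.5 uM final for 24 h at 37 °C. Firefly luminescence by Dual-Glo, normalized to vehicle (0%) and zero RLU (-100%).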
# Potency is the fitted concentration of half-maximal effect.
SMILES,"activity change, negative = inhibition",Potency
CC(=O)c1cccc(NC(=O)Cn2c(SCC(=O)Nc3ccc(F)cc3)nc3ccccc32)c1,inactive: -31.6%,
CCOc1ccc(-n2c(C)nc3c(cnn3-c3ccc(C)cc3)c2=O)cc1,inactive: -18.1%,
COc1ccc(-c2c(C#N)c(SCC(=O)Nc3ccccc3C)nc(C)c2C(=O)Nc2ccccc2)cc1OC,inactive: -19.9%,
COCCCNC(=O)CSc1nc(-c2cccc(F)c2)[nH]c1-c1ccccc1,inactive: -23.2%,
O=C(CN1CCN(Cc2ccccc2Cl)C1=O)NCc1ccccc1Cl,inactive: -10.9%,
Cn1cc(S(=O)(=O)c2ccccc2)c(=O)c2cc(F)c(N3CCOCC3)cc21,inactive: -9.71%,
N#C/C(=C\c1ccc(Cl)cc1)C(=O)NCC1CCCO1 (stereo unspecified),inactive: 9.29%,
CC(COc1ccccc1)NC(C)C(O)c1ccc(O)cc1 (stereo unspecified),inactive: 5.67%,
CCc1cnc2c(c1SCC(=O)Nc1ccc(Cl)cc1)c(=O)n(C)c(=O)n2C,inactive: -18.5%,
CCOc1ccc(NC(=O)Cc2coc3ccc(C)cc23)cc1,inactive: -11.5%,
COc1ccc(-c2cc(C(F)F)n3ncc(C(=O)Nc4cc(OC)ccc4OC)c3n2)cc1,inactive: -0.794%,
COc1ccccc1NC(=O)CSc1ccc(-c2sc(C)nc2C)nn1,inactive: -11.8%,
CCC(Nc1ccc(-c2nc(-c3ccco3)no2)cc1[N+](=O)[O-])c1ccccc1 (stereo unspecified),inactive: -8.47%,
Cc1cccc(-c2nc(CCNC(=O)Cc3ccc(F)cc3)cs2)c1,inactive: -21%,
COc1ccc(C2c3cccn3CCN2S(=O)(=O)c2ccccc2[N+](=O)[O-])cc1OC (stereo unspecified),inactive: -17.9%,
O=C(NCC(c1ccc2c(c1)OCO2)N1CCOCC1)c1ccccc1F (stereo unspecified),inactive: 23.2%,
CCc1ccc2occ(CC(=O)Nc3c(C(=O)Nc4ccc(OC)cc4)oc4ccccc34)c2c1,inactive: 3%,
O=C(NCc1ccccc1)c1nnc(Cc2cccc(F)c2)o1,inactive: -7.02%,
Cc1cccn2cc(-c3cccc(NS(=O)(=O)c4ccc(Cl)c(Cl)c4)c3)nc12,inactive: -7.93%,
CC(C)(C)c1ccc(C(O)CCCN2CCC(C(O)(c3ccccc3)c3ccccc3)CC2)cc1 (stereo unspecified),inactive: 8.49%,
Cc1ccc2nc(Cl)c3cc(C(=O)N(C)C4CCCCC4)sc3c2c1,inactive: -4.35%,

SMILES,"activity change, negative = inhibition",Potency
CCn1c(CNC(=O)c2ccc(OC)cc2)nnc1SCC(=O)Nc1cccc(C)c1C,inactive: -1.88%,
COc1cccc(Cn2c(=O)n(-c3cccc(Cl)c3C)c(=O)c3c4c(sc32)CN(C(C)=O)CC4)c1,inactive: -9.42%,
CCOC(=O)c1c(C)oc2nc(C)nc(NCC3CCN(Cc4cccc(C)c4)CC3)c12,inactive: -3.45%,
CCOc1ccc(-n2cc(-c3ccccc3)c3c(NC4CCCCC4)ncnc32)cc1,inactive: -9.59%,
Cc1nn(-c2ccccc2)c(OC(=O)c2ccccc2Cl)c1S(=O)(=O)c1ccccc1,inactive: 1.19%,
COc1ccc2c(c1)c1c(c(=O)n(-c3cccc(Cl)c3)c(=O)n1CC(=O)NCC1CCCO1)n2C (stereo unspecified),inactive: -3.17%,
CCOc1ccc(NC(=O)CSC2=Nc3ccccc3C3=NC(CCC(=O)NCc4cccs4)C(=O)N23)cc1 (stereo unspecified),inactive: -0.976%,
CCOc1ccc(-c2nnc(SCC(=O)NCc3ccc(C)cc3)nc2-c2ccc(OCC)c(OC)c2)cc1OC,inactive: -17.9%,
COCCNC(=O)Cn1cnc2sc(C)c(S(=O)(=O)N3CCN(c4ccccc4OC)CC3)c2c1=O,inactive: -4.59%,
CCc1nn2c(=O)cc(COC(=O)c3ccccc3NC(=O)COc3ccc(F)cc3)nc2s1,inactive: -4%,
CCOC(=O)c1[nH]c(C)c(CCC(=O)Nc2cccc(C(F)(F)F)c2)c1C,inactive: -19.7%,
COc1cc(CNCCSc2nnnn2C)ccc1OCc1ccc(F)cc1,inactive: -2.13%,
CC(CNC(=O)c1nnc(Cc2cccc(F)c2)o1)c1ccccc1 (stereo unspecified),inactive: -22.3%,
COc1ccc(N2CC(NC(=O)C3CC3)CC2=O)cc1 (stereo unspecified),inactive: -10.5%,
CCC(NC(=O)Nc1ccc(OC)c(OC)c1)c1c(-n2cccc2)sc2c1CCN(C)C2 (stereo unspecified),inactive: -13.4%,
CC(=O)c1cccc(NC(=O)[C@H](Cc2ccccc2)N2Cc3ccccc3C2=O)c1,inactive: -3.65%,
O=c1oc2ccc3ccccc3c2cc1-c1nnc(Nc2ccc(Cl)cc2Cl)s1,inactive: -2.04%,
CCc1ccc(NC(=O)Cn2c(=O)c(CNc3ccccc3)cc3cc(OC)c(OC)cc32)cc1,inactive: 1.7%,
Cc1cccc(NC(=O)C2CCCN(S(=O)(=O)c3c(C)[nH]c(=O)[nH]c3=O)C2)c1C (stereo unspecified),inactive: -15.2%,
COc1ccc(-c2nc3ccccc3o2)cc1NC(=O)C(C)(C)Oc1ccc(Br)cc1,inactive: -16.4%,
COc1cccc(N2CCN(C(=O)CCS(=O)(=O)c3ccc4c(c3)CC(=O)N4C)CC2)c1,inactive: -14.8%,

SMILES,"activity change, negative = inhibition",Potency
O=C(Cn1c(=O)oc2cc(S(=O)(=O)N3CCCC3)ccc21)NCc1ccc(Cl)cc1,inactive: -29.2%,
CCN(CC)C(=O)Cn1c(=O)n(Cc2ccc(C(=O)NCc3ccc(C)cc3)cc2)c(=O)c2ccccc21,inactive: -7.34%,
Cc1ccc(NC(=O)c2cn3c4c(ccc(Cl)c4c2=O)OC(C)C3)cc1C (stereo unspecified),inactive: 0.393%,
CCOCCCNC(=O)c1cc2c(=O)n(C)c3ccccc3c2n1C,inactive: -6.55%,
O=C(C1CCC(CNS(=O)(=O)c2ccc(Br)s2)CC1)N1CCN(c2ccccc2Cl)CC1 (stereo unspecified),inactive: -21.5%,
CCOc1cc2sc(N3CCC(C(=O)Nc4ccccc4C(=O)OC)CC3)nc2cc1Br,inactive: 25.5%,
CCOC(=O)c1sc(NC(=O)C(C)Oc2ccc(OC)cc2)c(C(=O)OCC)c1C (stereo unspecified),inactive: 3.44%,
COc1ccc(C(=O)Nc2cc(-c3ccccc3)nn2-c2ccccc2)cc1,inactive: -25%,
CCOC(=O)c1cccc(NC(=O)c2cc3cc4cc(OC)ccc4nc3s2)c1,inactive: 7.68%,
COc1ccc(C)cc1NC(=O)CN1C(=O)COc2ccc(S(=O)(=O)N3CCOCC3)cc21,inactive: 6.12%,
O=C(COCc1cc(-c2cccs2)on1)Nc1cc(Cl)ccc1O,inactive: -22.2%,
Cc1nc(-c2ccc(OCC(C)C)c(C#N)c2)sc1C(=O)O,,active: 5.01 µM
CCOc1ccccc1NC(=O)Cn1c(=O)oc2cc(S(=O)(=O)NCc3ccccc3)ccc21,inactive: -29.1%,
COC(=O)C1=C(C)NC(=O)C1(NC(=O)c1ccc(Cl)cc1)C(F)(F)F (stereo unspecified),inactive: -9.03%,
CCN1CCC(N(Cc2cccc(OC)c2)C(=O)Nc2cccc(C)c2C)CC1,inactive: -12.3%,
CC1=Nc2cc(C(=O)NCc3ccc(C)cc3)ccc2Sc2ccc(Cl)cc21,inactive: -15.5%,
O=C(CSc1nc2c([nH]c3ccccc32)c(=O)n1-c1ccc(Cl)cc1)NC1CCCCC1,inactive: -31.7%,
CCc1ccc(NC(=O)N2CCN(Cc3nc4ccc(C)cc4o3)CC2)cc1,inactive: -38.3%,
CCN(CC)C(=O)CN1C(=O)COc2ccc(S(=O)(=O)N3CCOCC3)cc21,inactive: -15%,
